Test results as given in ChEMBL document CHEMBL4888484, “Replenishing the malaria drug discovery pipeline: Screening and hit evaluation of the MMV Hit Generation Library 1 (HGL1) against asexual blood stage Plasmodium falciparum ,using a nano luciferase reporter read-out” (2022).
The campaign covered roughly 150,000 compounds. About 540 (0.36%) showed an effect of 50% or more. The list shows a part of the results.

The compounds below were run on Plasmodium falciparum (assay: Primary screen in NF54 nanoGlo assay, in single point, at 2uM, 72h; a lower Z score goes with more inhibition). Conditions: timepoint 72 hour.
Type: functional, Erythrocyte

SMILES | % Inhibition [%] | Z score
CC(C)[C@H](NCc1ccc(C#N)cc1)C1(CO)CCC1 | -5 | 1.04
Cc1cccc(CNC[C@H](NC(=O)OC(C)(C)C)C(C)C)c1 | 10 | -1.5
O=C1COc2ncc(C(=O)N3CC[C@H](c4nc(C5CC5)no4)C3)cc2N1 | 2 | -0.34
COc1ccccc1Oc1cc(C#N)c(C#N)cc1N1CCOCC1 | 20 | -2.48
CC(=O)Nc1ccc(NC(=O)Cn2ccc3ccn(Cc4ccccc4)c3c2=O)cc1 | -12 | 1.47
CC1(C)CC[C@H](N2CCCN(CC(=O)N3CCCC3)CC2)C1 | -17 | 2.69
Fc1ccc(-n2cc(-c3noc(-c4ccccc4)n3)nn2)cc1 | -17 | 3.4
O=C(NC1CCCCCCC1)[C@H]1CCCN(c2ccc3nncn3n2)C1 | -24 | 2.11
O=C(NCCCN1CCN(c2cccc(Cl)c2)CC1)[C@H]1CCCN(c2nc3ccccc3[nH]2)C1 | 7 | -1.19
C#CC(NC(=O)N1CCCC1c1nc(C(=O)OC)c(C)s1)C(C)C (configuration not stated) | -18 | 2.41
O=C(NCc1cccnc1)[C@@H]1C[C@H](NCc2ccccc2F)CN1Cc1ccccc1Cl | -5 | 0.96
N#Cc1ccc(NCc2nccn2CCCc2ccccc2)nc1 | -11 | 1.08
COCC1(CNc2nc(C)cc(C)n2)CCCC1 | -1 | 0.12
CC(C)Cn1ncc(C(=O)N2CCN(C)c3ccccc32)c1C(F)F | 0 | -0.04
CCC1(C)CCCC1NCC(=O)NCC1CC1 (configuration not stated) | -4 | 0.81
CCOC(=O)C1CCCN(C(C)C(=O)Nc2ccccc2-c2ccccc2)C1 (configuration not stated) | -8 | 0.97
C[C@H](NC(=O)c1nccn1C)c1nnc(N)s1 | -11 | 1.44
CC(C)N(Cc1ccccc1)C(=O)C1CCN(C(=O)c2ccco2)CC1 | -6 | 1.15
CN(C(=O)OC(C)(C)C)C1CCN(CC2CCCO2)C1 (configuration not stated) | -14 | 1.2
COc1cc(=O)n(C)cc1C(=O)NCc1ccco1 | -5 | 0.93
CCn1ccnc1CNC(=O)N1CC[C@](C)(F)C1 | -12 | 1.45
O=C(N[C@H]1CCCCNC1=O)c1cccc(NCc2cncs2)c1 | -3 | 0.38

SMILES | % Inhibition [%] | Z score
CN(CCCNCc1csnn1)c1ccccc1 | -13 | 1.45
Cc1cccc(N2CCC(NCCOCCO)CC2)c1C | -6 | 1.07
Cc1oncc1CN1CCN(c2ccc(F)cc2)CC1 | -5 | 0.84
O=C(c1cnc2cc(Cl)ccc2c1O)N1CCOCC1 | -8 | 0.94
CC(C)Cc1ccc([C@@H](NCc2nnn(C)n2)C2CC2)cc1 | -13 | 1.52
Cc1cccc2nc(NCC(C)(C)CS(C)(=O)=O)oc12 | -9 | 0.92
CCn1cnnc1CNC(=O)[C@H]1CC(=O)N(C)C1 | 2 | -0.21
CC(C)n1cnc(C(=O)Nc2nc(CN3CCCCCC3)cs2)c1 | -5 | 0.47
C[C@@H](C(=O)N1CCN(Cc2ccc(O)cc2)CC1)N1CCN(C)CC1 | -10 | 1.18
O=C(Nc1ccccc1)OCc1cc(-c2ccccc2Cl)on1 | -2 | 0.29
CC(=O)N[C@H]1C[C@@H](c2cccc(O)c2)O[C@@H](C2(C)CCN(C)CC2)C1 | -5 | 0.95
CC(C)[C@H](CNC(=O)c1cc(O)c2cccc(F)c2n1)N1CCCC1 | 12 | -1.61
Cc1ccc(C)c(NC(=O)N2CC[C@H](N3CCN(C)CC3)[C@H](CCC(=O)O)C2)c1 | -9 | 1.69
O=C(N[C@H]1CCOc2ccccc21)c1cc2c(s1)CCCC2 | -1 | 0.13
CCO[C@H]1COC[C@@H]1Nc1ncc(C#N)c(N)n1 | -2 | 0.43
CCN(CCO)C[C@@H]1CN(C(=O)c2cc3ccccc3cc2O)C[C@@H]1CO | -12 | 1.65
C[C@@H](C1CCN(C(=O)c2ccc3occc3c2)CC1)N1CCN(C)CC1 | -8 | 1.28
Cc1ccc(Nc2[nH]nnc2C(=O)NCc2cccc(Cl)c2)cc1C | -9 | 1.05
O=C(CCc1ccc(F)cc1F)N1CC[C@H]2NCCC[C@]2(C(=O)O)C1 | -15 | 2.89
COc1ccccc1CN1CCN(Cc2ccccn2)[C@H]2CS(=O)(=O)C[C@H]21 | 1 | -0.08
O=C(Nc1ccc(-n2nn[nH]c2=O)cc1)c1ccc2cc[nH]c2c1 | -50 | 5.9
Cc1ccc(-c2nc(CN3N=NC4C(=O)N(c5cc(C)cc(C)c5)C(=O)C43)c(C)o2)cc1 (configuration not stated) | -9 | 0.94

SMILES | % Inhibition [%] | Z score
CCCc1cc(C(=O)N[C@H](CO)COCc2ccccc2)[nH]n1 | -7 | 0.87
COc1ccc(CN(C(=O)c2cnc(C3CC3)nc2)C2CCCC2)c(OC)c1 | 27 | -2.44
COCc1noc(-c2cc(C3CC3)nc3ccccc23)n1 | 2 | -0.34
O=C1CC[C@H](C(=O)NCc2ccc(N3CCCCC3)nc2)CN1 | -15 | 2.43
CCCc1[nH]nc(-c2cccc(OC)c2)c1NC(=O)Nc1cc(OC)cc(OC)c1 | -9 | 1.12
CC1CC(c2cccnc2)N(C(=O)C(O)C2CCCCC2)C1 (configuration not stated) | -7 | 1.3
CC1(C)C2CN(C(=O)C3(C4CCC4)CCC3)CC21 (configuration not stated) | -2 | 0.16
O=C(c1cc(-n2ccnn2)ccc1F)N1CC[C@@](O)(Cc2ccc(F)cc2)C1 | -11 | 1.42
CC(C)c1nnc(COc2ccc(Cl)c(CO)c2)s1 | -2 | 0.36
CCn1ncc(CN2CCN(S(=O)(=O)c3ccc(N4CCCC4=O)cc3)CC2)c1C | 24 | -3.52
O=C1NCCN(C(=O)c2cc(-c3ccccc3F)n[nH]2)[C@H]1c1ccc(F)cc1 | -8 | 1
O=C([C@@H]1CCCc2[nH]cnc21)N1CC(COc2ccccc2)C1 | 7 | -0.99
Cc1cc(C)c(CN(C)Cc2nc(-c3ccccn3)no2)cc1C | -11 | 1.83
O=C(Cc1ccccc1)Nn1cc(-c2ccc(Cl)cc2)sc1=O | 4 | -0.59
CCc1nnc(N2C[C@H]3CC[C@@H](C2)N(Cc2c(C)noc2C)C3=O)s1 | -6 | 1.08
O=C(Nc1ccccc1N1CCCC1)NC1C2CCC(C2)C1CO (configuration not stated) | -1 | 0.18
O=C(Cn1nnc2ccccc21)Nc1cccc(C(=O)NC2CC2)c1 | -7 | 1.29
N#Cc1cccc(NC(=O)N2CC(Oc3ccccc3Cl)C2)c1 | -4 | 0.41
CC(=O)NCCNC(=O)c1ccc(N2CCCCC2)cc1 | -6 | 0.96
Oc1cc(CN2CCC(F)(F)CC2)nc2c(F)cccc12 | -11 | 1.48
Cc1cccc(C(=O)N2CCCN(C(=O)CNC(=O)C3CCCC3)CC2)c1 | -1 | 0.08
CCN(CC(=O)N1CCO[C@@H](C)C1)Cc1cccs1 | -7 | 1.06

SMILES | % Inhibition [%] | Z score
C[C@H](O)c1onc(-c2cccs2)c1C(=O)NCc1ccccn1 | -16 | 2.01
Cc1cccc2nnc(N3CCN(C(=O)c4ccc(F)cc4)CC3)n12 | 30 | -3.39
CCCN(Cc1nccn1C)C(=O)CN1CCNC1=O | 0 | 0.04
Cc1nc2cc(NC(=O)CCn3cnnn3)ccc2[nH]1 | -8 | 1.07
CC(C)N1CCc2c(C#N)c(NCc3ccccc3)n3cnnc3c2C1 | 2 | -0.26
Cc1cc(C)c(CC(=O)NS(=O)(=O)CC(F)(F)F)c(C)c1 | -9 | 1.5
CC(=O)Nc1cccc(NC(=O)CN2CCS(=O)(=O)CC2(C)C)c1 | -13 | 2.36
CCOC(=O)N1CCN(C(=O)CN2CCC(COCc3ccccc3)CC2)CC1 | -3 | 0.35
C=CCNC(=O)Cc1ccc(CC)cc1 | -14 | 2.21
Cc1nc2cc(NC(=O)[C@H]3CC(=O)N(c4cccc(Br)c4)C3)ccc2o1 | -4 | 0.67
c1nnnn1CCCc1nc(C2CC2)n[nH]1 | -11 | 2.1
CCc1nn(C)c(Cl)c1CN(Cc1ccco1)[C@@H](C)C(C)C | 6 | -1.05
O=C1CC(C(=O)Nc2nccs2)N2C(=O)c3ccccc3C2N1 (configuration not stated) | -6 | 0.82
CC(C)C(NC(=O)COc1ccccc1)C(C)C | -6 | 0.79
Cn1ccc(C2CCN(C(=O)Nc3ccc(=O)n(C)n3)CC2)n1 | -13 | 1.43
CC(=O)C(C(=O)CN(C)c1ccccc1)=C(C)N | 6 | -0.97
CCC(C)NC(=O)c1coc(CN(Cc2cc(OC)ccc2OC)C(C)c2ccccc2)n1 (configuration not stated) | -9 | 0.82
CCN(c1ccc(NC(=O)COC(=O)[C@H](C)NC2=NS(=O)(=O)c3ccccc32)cc1)C(C)C | -8 | 1.37
CCc1ccc(CN2C[C@@H]3CC[C@H]2CN(Cc2cccnc2)C3)nc1 | -14 | 1.97
CCc1c(C(=O)N2CC[C@]3(OC)CC[C@@H](OC)C[C@H]23)[nH]c2ccccc12 | 8 | -0.96
